Source: publication PMC7729032, “Interaction interface in the C-terminal parts of centriole proteins Sas6 and Ana2” (Open Biology, 2020)
No constants are given. Whether binding was seen depends on the method and setting. Binding seen in cells or lysates may run through a third protein. Some results given as binding are weak or reduced against the parent protein; the word gives no strength. Where a sequence is shown, tags or fusion partners need not be part of it.

T1: GST-Ana2-4D deletion aa325–331 (Drosophila) (UniProt Q9XZ31)
T1 sequence: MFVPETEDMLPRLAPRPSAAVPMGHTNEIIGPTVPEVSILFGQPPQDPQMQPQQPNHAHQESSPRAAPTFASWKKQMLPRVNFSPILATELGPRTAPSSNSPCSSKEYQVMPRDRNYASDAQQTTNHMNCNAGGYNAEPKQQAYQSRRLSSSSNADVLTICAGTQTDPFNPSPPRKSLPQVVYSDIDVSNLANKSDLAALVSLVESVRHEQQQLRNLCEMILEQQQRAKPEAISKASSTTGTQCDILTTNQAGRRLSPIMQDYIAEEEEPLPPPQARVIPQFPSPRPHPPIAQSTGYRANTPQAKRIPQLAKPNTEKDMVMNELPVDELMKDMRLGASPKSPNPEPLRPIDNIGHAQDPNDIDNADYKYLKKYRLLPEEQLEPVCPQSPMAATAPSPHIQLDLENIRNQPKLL

T2: GST-Ana2-4D deletion aa375–383 (Drosophila) (UniProt Q9XZ31)
T2 sequence: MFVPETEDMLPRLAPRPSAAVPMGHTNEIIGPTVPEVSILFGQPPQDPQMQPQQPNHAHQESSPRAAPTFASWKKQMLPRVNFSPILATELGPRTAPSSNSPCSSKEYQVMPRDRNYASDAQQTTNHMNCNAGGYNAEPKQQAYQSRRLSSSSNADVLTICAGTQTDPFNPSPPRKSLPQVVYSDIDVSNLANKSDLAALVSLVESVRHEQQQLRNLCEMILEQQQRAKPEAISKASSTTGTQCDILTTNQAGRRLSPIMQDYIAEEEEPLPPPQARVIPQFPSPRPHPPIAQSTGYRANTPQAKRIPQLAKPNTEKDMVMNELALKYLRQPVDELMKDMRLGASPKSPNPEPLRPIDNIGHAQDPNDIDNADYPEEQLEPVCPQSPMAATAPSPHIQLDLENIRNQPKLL

T3: GST-Ana2-4D with both deletions aa325–331 and aa375–383 (Drosophila) (UniProt Q9XZ31)
T3 sequence: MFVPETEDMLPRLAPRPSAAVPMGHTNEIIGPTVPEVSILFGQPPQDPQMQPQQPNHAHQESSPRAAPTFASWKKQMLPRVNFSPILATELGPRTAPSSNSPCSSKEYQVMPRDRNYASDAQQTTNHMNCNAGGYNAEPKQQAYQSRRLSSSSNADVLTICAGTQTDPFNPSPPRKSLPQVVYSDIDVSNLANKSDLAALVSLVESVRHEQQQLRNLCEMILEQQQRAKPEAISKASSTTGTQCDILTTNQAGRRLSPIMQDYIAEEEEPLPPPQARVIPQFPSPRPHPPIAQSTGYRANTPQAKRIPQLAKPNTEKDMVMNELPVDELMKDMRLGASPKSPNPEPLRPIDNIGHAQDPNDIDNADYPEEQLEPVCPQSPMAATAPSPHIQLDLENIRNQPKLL

T4: GST-tagged Ana2-4D (phosphomimetic Ana2) (Drosophila) (UniProt Q9XZ31)
T4 sequence: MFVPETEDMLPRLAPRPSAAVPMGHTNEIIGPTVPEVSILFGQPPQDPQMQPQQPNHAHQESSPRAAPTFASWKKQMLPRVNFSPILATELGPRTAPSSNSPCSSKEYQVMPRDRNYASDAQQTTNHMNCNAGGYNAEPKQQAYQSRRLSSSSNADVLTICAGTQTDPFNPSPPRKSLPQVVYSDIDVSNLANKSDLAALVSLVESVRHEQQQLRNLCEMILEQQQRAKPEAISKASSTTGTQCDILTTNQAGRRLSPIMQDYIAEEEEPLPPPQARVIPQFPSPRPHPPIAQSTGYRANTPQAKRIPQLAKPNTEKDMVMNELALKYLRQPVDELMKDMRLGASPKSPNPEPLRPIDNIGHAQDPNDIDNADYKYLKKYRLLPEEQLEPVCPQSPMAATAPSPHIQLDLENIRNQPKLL

T5: 3xFLAG-Ana2-4D (Drosophila) (UniProt Q9XZ31)
T5 sequence: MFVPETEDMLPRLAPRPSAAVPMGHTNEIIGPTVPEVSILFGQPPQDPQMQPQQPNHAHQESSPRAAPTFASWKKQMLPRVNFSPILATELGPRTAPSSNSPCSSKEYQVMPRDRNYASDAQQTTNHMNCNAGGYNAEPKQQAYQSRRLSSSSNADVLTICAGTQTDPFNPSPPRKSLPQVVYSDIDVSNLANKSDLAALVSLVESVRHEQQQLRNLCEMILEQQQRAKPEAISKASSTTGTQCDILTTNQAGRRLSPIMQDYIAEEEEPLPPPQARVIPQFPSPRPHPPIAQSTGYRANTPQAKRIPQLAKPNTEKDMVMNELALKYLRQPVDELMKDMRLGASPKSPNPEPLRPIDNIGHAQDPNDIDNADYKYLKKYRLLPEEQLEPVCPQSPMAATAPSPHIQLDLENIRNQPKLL


How the values were obtained:
[1] = target: T1, GST-Ana2-4D deletion aa325–331 (Drosophila); assay: pull-down; bait from lysate on Glutathione-Sepharose 4B, washed; lysate with MBP-tagged prey added, 1 h at 4°C; washes in 20 mM Tris–HCl pH 7.5, 250 mM NaCl, 5% glycerol, 1 mM DTT, 0.5% Triton; SDS–PAGE with PageBlue staining; only the target purified
[2] = target: T2, GST-Ana2-4D deletion aa375–383 (Drosophila); assay: as above
[3] = target: T3, GST-Ana2-4D with both deletions aa325–331 and aa375–383 (Drosophila); assay: as above
[4] = target: T4, GST-tagged Ana2-4D (phosphomimetic Ana2) (Drosophila); assay: as above
[5] = target: T5, 3xFLAG-Ana2-4D (Drosophila); assay: co-IP; D.Mel-2 cells co-transfected with 3xFLAG-Ana2 (4A or 4D) and Sas6-6xMyc (wt or Δ385-410), 25 µM MG132 for 5 h; anti-FLAG M2 magnetic beads; immunoblotting

Row | binding [4] | Binder | other results
1 | binds | MBP-Sas6 wild-type (protein, UniProt Q9VAC8 1-472) MWPPGSEDSYSAKMDYGKSVVNILPSVEMLVNFNGEMTRSSKRSCLLYAERVDFKELLQLRLTEKSDQRRMYITTVDSASFQDLKQDQSLNVSFSGFIDNVVRMLKDCQSGKLELHLTTRDQNLSSGREVHDYYLQFVEIRSFKNLVHLSLPCRSAPLNTVLFYINSMLEASHKKQYILEQSMQQMQAEINAQRAHAERLTTENTNIREALAENTRILEEKHAAEVHQYQEKLSKINEQRSNELERNRRAISGFQAQLDKASLEKAELKSAQEQAEKRCQTLSEELSCCKARVCTLKEQNDKLHGDVANIRKHERKLEYKIEDLKQHTVELQEHIQKGNKEKANIAAELEAEKKILHTKRQALEMASEEISKANQIIVKQSQELLNLKKTIAWRTEVALQQEKAVQAKESLLSLRENELREARITIEKLREEIPQQLQSMRNFAQGLEQKYSKQILILKERLAIPTGKENRR | binding [1]: binds weakly; binding [2]: binds; binding [3]: binds weakly
2 | – | Sas6-wt-6xMyc (protein, UniProt Q9VAC8 1-472) MWPPGSEDSYSAKMDYGKSVVNILPSVEMLVNFNGEMTRSSKRSCLLYAERVDFKELLQLRLTEKSDQRRMYITTVDSASFQDLKQDQSLNVSFSGFIDNVVRMLKDCQSGKLELHLTTRDQNLSSGREVHDYYLQFVEIRSFKNLVHLSLPCRSAPLNTVLFYINSMLEASHKKQYILEQSMQQMQAEINAQRAHAERLTTENTNIREALAENTRILEEKHAAEVHQYQEKLSKINEQRSNELERNRRAISGFQAQLDKASLEKAELKSAQEQAEKRCQTLSEELSCCKARVCTLKEQNDKLHGDVANIRKHERKLEYKIEDLKQHTVELQEHIQKGNKEKANIAAELEAEKKILHTKRQALEMASEEISKANQIIVKQSQELLNLKKTIAWRTEVALQQEKAVQAKESLLSLRENELREARITIEKLREEIPQQLQSMRNFAQGLEQKYSKQILILKERLAIPTGKENRR | binding [5]: binds
3 | no binding | MBP-Sas6 polyalanine mutant (V397A, Q400A, Q401A, E402A, K403A) (protein, UniProt Q9VAC8 1-472) MWPPGSEDSYSAKMDYGKSVVNILPSVEMLVNFNGEMTRSSKRSCLLYAERVDFKELLQLRLTEKSDQRRMYITTVDSASFQDLKQDQSLNVSFSGFIDNVVRMLKDCQSGKLELHLTTRDQNLSSGREVHDYYLQFVEIRSFKNLVHLSLPCRSAPLNTVLFYINSMLEASHKKQYILEQSMQQMQAEINAQRAHAERLTTENTNIREALAENTRILEEKHAAEVHQYQEKLSKINEQRSNELERNRRAISGFQAQLDKASLEKAELKSAQEQAEKRCQTLSEELSCCKARVCTLKEQNDKLHGDVANIRKHERKLEYKIEDLKQHTVELQEHIQKGNKEKANIAAELEAEKKILHTKRQALEMASEEISKANQIIVKQSQELLNLKKTIAWRTEAALAAAAAVQAKESLLSLRENELREARITIEKLREEIPQQLQSMRNFAQGLEQKYSKQILILKERLAIPTGKENRR | –
4 | no binding | MBP-Sas6 deletion aa385–398 (protein, UniProt Q9VAC8) MWPPGSEDSYSAKMDYGKSVVNILPSVEMLVNFNGEMTRSSKRSCLLYAERVDFKELLQLRLTEKSDQRRMYITTVDSASFQDLKQDQSLNVSFSGFIDNVVRMLKDCQSGKLELHLTTRDQNLSSGREVHDYYLQFVEIRSFKNLVHLSLPCRSAPLNTVLFYINSMLEASHKKQYILEQSMQQMQAEINAQRAHAERLTTENTNIREALAENTRILEEKHAAEVHQYQEKLSKINEQRSNELERNRRAISGFQAQLDKASLEKAELKSAQEQAEKRCQTLSEELSCCKARVCTLKEQNDKLHGDVANIRKHERKLEYKIEDLKQHTVELQEHIQKGNKEKANIAAELEAEKKILHTKRQALEMASEEISKANQIIVKQSQELLQQEKAVQAKESLLSLRENELREARITIEKLREEIPQQLQSMRNFAQGLEQKYSKQILILKERLAIPTGKENRR | –
5 | no binding | MBP-Sas6 deletion aa385–410 (protein, UniProt Q9VAC8) MWPPGSEDSYSAKMDYGKSVVNILPSVEMLVNFNGEMTRSSKRSCLLYAERVDFKELLQLRLTEKSDQRRMYITTVDSASFQDLKQDQSLNVSFSGFIDNVVRMLKDCQSGKLELHLTTRDQNLSSGREVHDYYLQFVEIRSFKNLVHLSLPCRSAPLNTVLFYINSMLEASHKKQYILEQSMQQMQAEINAQRAHAERLTTENTNIREALAENTRILEEKHAAEVHQYQEKLSKINEQRSNELERNRRAISGFQAQLDKASLEKAELKSAQEQAEKRCQTLSEELSCCKARVCTLKEQNDKLHGDVANIRKHERKLEYKIEDLKQHTVELQEHIQKGNKEKANIAAELEAEKKILHTKRQALEMASEEISKANQIIVKQSQELLLSLRENELREARITIEKLREEIPQQLQSMRNFAQGLEQKYSKQILILKERLAIPTGKENRR | –
6 | – | Sas6-Δ385–410-6xMyc (protein, UniProt Q9VAC8) MWPPGSEDSYSAKMDYGKSVVNILPSVEMLVNFNGEMTRSSKRSCLLYAERVDFKELLQLRLTEKSDQRRMYITTVDSASFQDLKQDQSLNVSFSGFIDNVVRMLKDCQSGKLELHLTTRDQNLSSGREVHDYYLQFVEIRSFKNLVHLSLPCRSAPLNTVLFYINSMLEASHKKQYILEQSMQQMQAEINAQRAHAERLTTENTNIREALAENTRILEEKHAAEVHQYQEKLSKINEQRSNELERNRRAISGFQAQLDKASLEKAELKSAQEQAEKRCQTLSEELSCCKARVCTLKEQNDKLHGDVANIRKHERKLEYKIEDLKQHTVELQEHIQKGNKEKANIAAELEAEKKILHTKRQALEMASEEISKANQIIVKQSQELLLSLRENELREARITIEKLREEIPQQLQSMRNFAQGLEQKYSKQILILKERLAIPTGKENRR | binding [5]: no binding
7 | binds weakly | MBP-Sas6 deletion aa398–410 (protein, UniProt Q9VAC8) MWPPGSEDSYSAKMDYGKSVVNILPSVEMLVNFNGEMTRSSKRSCLLYAERVDFKELLQLRLTEKSDQRRMYITTVDSASFQDLKQDQSLNVSFSGFIDNVVRMLKDCQSGKLELHLTTRDQNLSSGREVHDYYLQFVEIRSFKNLVHLSLPCRSAPLNTVLFYINSMLEASHKKQYILEQSMQQMQAEINAQRAHAERLTTENTNIREALAENTRILEEKHAAEVHQYQEKLSKINEQRSNELERNRRAISGFQAQLDKASLEKAELKSAQEQAEKRCQTLSEELSCCKARVCTLKEQNDKLHGDVANIRKHERKLEYKIEDLKQHTVELQEHIQKGNKEKANIAAELEAEKKILHTKRQALEMASEEISKANQIIVKQSQELLNLKKTIAWRTEVLLSLRENELREARITIEKLREEIPQQLQSMRNFAQGLEQKYSKQILILKERLAIPTGKENRR | –
